Reference: patent publication US20110200585A1

Molecular target: human CD127 ECD (human) (UniProt P16871)
Assay: SPR, BIAcore 3000; antibody captured on anti-human IgG (Fc), CD127 ECD 16-512 nM as analyte, 1:1 Langmuir fit

- Kd: 2.67 nM
- koff: 0.000452 s⁻¹
- kon: 169000 M⁻¹ s⁻¹
B1: Biotin-labelled 1A11 H3L4 (antibody)
heavy: QVQLVQSGAEVKKPGASVKVSCKASGYTFTGYTMNWVRQAPGQGLEWMGLINPYNGVTSYNQKFKGRVTLTRDTSISTAYMELSRLRSDDTAVYYCARGDGNYWYFDVWGQGTTVTVSS[letters of human IgG1 constant region not shown]
light: EIVLTQSPATLSLSPGERATLSCSASSSVTYMHWYQQKPGQAPRPLIYEISKLASGIPARFSGSGSGTDFTLTISSLEPEDFAVYYCQEWNYPYTFGGGTKVEIKRTVAAPSVFIFPPSDEQLKSGTASVVCLLNNFYPREAKVQWKVDNALQSGNSQESVTEQDSKDSTYSLSSTLTLSKADYEKHKVYACEVTHQGLSSPVTKSFNRGEC
modifications: biotin-labelled (chain and sites not stated)
